Results as given in the supplement of paper PMC10126150.
Sequences with one replicate were seen in a single cluster, so their values are uncertain.

tested on: ATP; test: switch fluorescence ratio, 500 uM ATP over buffer (Cy3 cluster intensity, sum of 5 cycles each) (fold (ratio)); higher = stronger signal-on switching upon ATP binding; sequences stand for … in TCGTCGGCAGCGTCAGATGTGTATAAGAGACAGTTTTTTTTTTTTTTTTTTTTTTTTT…TC; conditions: aptamer strand: ATP DNA aptamer (quencher-CACCTGGGGGAGTATTGCGGAGGAAGG + anchor), 100 nM annealed; ATP concentration: 500 uM; one replicate
Procedure, shortened: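 The quencher-labelled ATP aptamer, at 100 nM, was annealed to Cy3-labelled switching-strand clusters on a modified Illumina MiSeq flow-cell. The clusters were imaged in selection buffer, then after 15 min with 500 uM ATP at 22 °C, and this buffer/ATP cycle ran five times with NaOH stripping and re-annealing between runs. Per-cluster fluorescence ratios, summed target-cycle over summed buffer-cycle Cy3 intensity, were averaged per switch-domain sequence. Clusters outside 100-1000 RFU were excluded.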
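Note: ATP exposure 15 min at 22 °C before imaging.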

Sequence | switch fluorescence ratio
TCTTGGGTTA | 0.994
TAATTAATCG | 0.977
TTTACTTTTG | 1.05
CTGCGGTTGT | 1
CATACTAGGT | 1.02
GGGTTGTTAT | 1.01
AGGCCGGCAT | 0.987
GGCTGGTCCT | 0.983
ATACTTCAAC | 1.12
TGCTAGTGCC | 1.01
ATTTTTTTC | 1.22
ATACGCGCGT | 0.988
CGTTAAGTCT | 1.02
GCACTTCGGA | 1.05
GGGCGGGTAA | 0.993
CAGAGGATTA | 1
AGTTAATAAG | 0.967
CGGGCCATGG | 0.984
GGTTGTCAA | 1.05
AGCACGGTAT | 1.13
ATATGACAGG | 0.976
GGCTTGGAGG | 1.03
CGGGGGATAC | 1.69

Sequence | switch fluorescence ratio
AAGTGACTCG | 1.08
AGCATGGCGT | 1.04
CATCCCCTTG | 1.08
CCCGGAGTAG | 2.07
GTACTGATCG | 0.998
ATGAACCGCG | 1.18
CAACATTGG | 1
GATTAGCTTG | 1.04
TTGTCATCGC | 0.99
TATATAACGC | 1.01
AATGTCCTAG | 1.02
CCGTGCCTAT | 1.01
GATAGGCAG | 1
AACGTAAGTT | 1
CGGGTTATAT | 0.974
TACTGTCGCC | 1.03
AGAACTTGCA | 0.973
GCCATAGGGT | 1.03
TGCGTTATTC | 0.965
TACTCGACAT | 1.16
CGCACGCTA | 1.61
TATGTAAGTA | 1.01
AATCGCTGAG | 1.04

Sequence | switch fluorescence ratio
ATAAAAGCGG | 1.04
CCTTTGCGCT | 1.35
CGTGATCCGC | 1.3
GATAGTTTAA | 1.01
AACGATTTAG | 0.967
GTCAACGGGG | 0.994
TTATAGAATA | 0.973
GGAAACGTGT | 0.966
CTCGAGTAAC | 1.08
TAAATGCGTA | 1
GACGAAAATT | 1.11
CCCTGAGCTG | 1.24
AAGTTGGAT | 1
CATTCATGTG | 0.971
ATACGACGCA | 2.02
GGGAATGTGA | 0.985
TCTCGGATGC | 1.03
AAGCTCGATG | 1.02
CAGGGGGTTC | 0.988
TACTCCCCGC | 1.3
GCCCTTCGTC | 1.17
TGGTTGCACA | 1
ACAAGTGCT | 0.997

Sequence | switch fluorescence ratio
AGGATAAATC | 1
CTACTCTTCC | 2.43
TGGCTCAAAA | 1.02
CTCAATCAT | 0.986
AAAAAAGGT | 0.985
ACCTTATGTT | 1.03
GCATTCAGCC | 1.01
GCACCGTAGG | 1.03
CCTCTCACTC | 3.06
CTGTCACGCC | 0.99
AGCGACACAA | 2.05
GCATCAGAGG | 1.01
AGCCTAAAAG | 1.06
TTAATATCGC | 0.995
TTTGGGCAGA | 1.03
GCGGGAGCTC | 0.973
CGGTGAGTA | 1.02
AATCGCATCC | 1.33
TACTTGTTGA | 0.957
CCCGAGGAG | 1.09
ACACCATGGA | 1.03
TTAGCTAGCA | 1.02
TCGTGGGTCT | 0.967

Sequence | switch fluorescence ratio
ACCTAACGTG | 1.36
ATCGTATGAT | 0.977
CATGTGTCAT | 0.996
CCCCGAGATG | 2.59
ACTCATCTAT | 1.02
GGAAATGAGG | 0.971
AACTTGCTGT | 1.02
CTGTGGAGTT | 1.02
ATCGTGGCCT | 0.96
AATCAGGCTC | 1.04
ATTCCCTAAA | 1.01
AGATTGAGTG | 0.982
GATAGCAGGC | 1.45
AAATCTCGGT | 1.03
AGCTAGAGTT | 0.997
TGCTGGGCAT | 0.997
CTATAAACTT | 1.03
TTCCCATGTG | 1.78
ATGTGGAGGA | 1.05
CGAGATAGTA | 1
GGGACAGAAT | 1
AATGTAGCCA | 0.998
ACCGGATGAG | 0.96

Sequence | switch fluorescence ratio
TAAGATGAGT | 1.04
CAGGGAGTCC | 1.01
TCAGTGCGTC | 0.941
ACTATACTGA | 1.31
TACCCTCACG | 1.42
GTATTCCGCC | 1.09
ACAGGGAATA | 1.08
ACCTGAGGGC | 1.02
CTATCTGCTC | 1
TTCAGCT | 0.991
AACCATTCGT | 1.01
TAAATGGTAC | 1.03
GAAAAAGACC | 1.07
GACTGACAGG | 1.04
GACGTCGAGA | 1.02
TGTAGACATG | 1
TTGTTTGG | 1
GTGGAGCCTG | 1.03
AAGTCATGA | 1.01
ACTGTCGTAG | 1.03
GGCACGCCAG | 0.961
GGATGGGTAG | 0.961
CTCTGCTGT | 1.46

Sequence | switch fluorescence ratio
CGAAGCACTG | 2.23
TTGAGCCCGT | 0.974
GCGACAATCG | 1.04
TGCTAGTAGC | 0.962
AAGACATGTG | 1
CAGGGGAGAC | 0.988
TGAAGGTCAG | 1.01
ACAGTCACGC | 1.25
GAACAAGTAT | 0.985
ATTGAGTGT | 0.975
CAAATGTATG | 1.09
TTATCTTAAA | 0.973
GCGAAGGAAC | 0.998
ATAATTCATT | 0.987
ATAAAATAGG | 1
ATGTAATTA | 0.962
TGCAGCCGGG | 1.57
AAGGCGTTGT | 0.988
GCGTCCTCAG | 1.14
